Results taken from PubChem BioAssay AID686978 (National Center for Advancing Translational Sciences (NCATS), 2013).
Screen size: about 420,000 compounds; about 64,000 (15%) were called active. This list was built around the results that the source calls inconclusive (neither active nor inactive); the mix of calls is not that of the screen. The call rests on the fitted dose curve; in most records, active means well fitted inhibition curve with a large enough effect; inconclusive means small, poorly fitted or top-dose-only effect; inactive means flat fitted curve, though single readings scatter. No potency is given beside an inconclusive call; the fits are too rough.
On the % scale 0 is the no-effect control and ±100 the full control effect; potency means the concentration at half of the fitted maximal effect; tags describe the fitted curve by direction and shape.

Experiment: qHTS for Inhibitors of human tyrosyl-DNA phosphodiesterase 1 (TDP1): qHTS in cells in absence of CPT; further: nearly all actives have a fitted effect of over 55% in size
Settings: DT40 Tdp1-/- hTDP1 cells, no CPT, ATP luminescence, 48 h; activity change, negative = growth inhibition: at 46.2 µM (top of the series) unless noted
Outline: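 Camptothecin absent (DMSO only). Human TDP1-complemented DT40 knockout cells, 400 cells/well, 37 °C for minimum 48 hr; ATP measured via CellTiter-Glo, 30 min dark incubation, luminescence.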
For `CN(C)C(CNC(=O)C1CCN(S(=O)(=O)c2cc(Cl)ccc2Cl)CC1)Cc1ccccc1` (stereo not drawn), the Potency was inconclusive [inhibitor, single point].
In the case of `COc1cc(/C=C(\C#N)c2nc3ccccc3n2C)cc(OC)c1OC`, the Potency is reported as active: 11.6 µM.
With `COc1cc2c(cc1OC)C(c1cccs1)CC(=O)N2` (stereo not drawn) the “activity change, negative = growth inhibition” value was inactive: 0.792%.
With `COc1ccccc1Nc1nnc(SCC2CCCCO2)s1` (stereo not drawn) the Potency was inconclusive [inhibitor, single point].
In the case of `COCCN(CC(=O)Nc1cccc(C)c1C)C(=O)c1cc(-c2cccs2)nn1-c1ccccc1`, the Potency is reported as inconclusive [inhibitor, single point].
For `O=C(Nc1ccc(S(=O)(=O)N2CCCC2)cc1)c1cccc(OC(F)F)c1`, the Potency was inconclusive [inhibitor, single point].
For `Cn1c(=O)c2c(-c3cccc(Br)c3)n(CCO)cc2n(C)c1=O`, the Potency was inconclusive [inhibitor, single point].
With `Cc1cc(C)cc(OC(C)C(=O)Nc2ccc3c(c2)n(C)c(=O)n3C)c1` (stereo not drawn) the Potency was inconclusive [inhibitor, single point].
With `O=C(O)c1ccc(Br)c(S(=O)(=O)N2CCCC2)c1` the “activity change, negative = growth inhibition” value was inactive: -21.4%.
For `C[C@@H]1CCC[C@@]2(O[C@H](CCO)C[C@H](O)[C@H]2O)O1`, the “activity change, negative = growth inhibition” value was inactive: -27.2%.
For `Cc1ccc(-c2cccc(C(=O)NCc3ccccc3)n2)c2ccccc12`, the Potency was inconclusive [inhibitor, partial curve].
With `COc1cc(/C=N/NC(=O)c2cc(-c3cccs3)nc3ccccc23)ccc1O` the Potency was active: 9.2 µM.
With `CC(C)N(C(=O)CN1C(=O)NC(c2ccccc2)(c2ccccc2)C1=O)C(C)C` the Potency was inconclusive [inhibitor, single point].
For `COc1cc(/C=C/C(=O)OCC(=O)Nc2ccc(NC(C)=O)cc2)cc(S(=O)(=O)N2CCc3ccccc32)c1OC`, the Potency was inconclusive [inhibitor, partial curve, poor fit].
With `CCN1CCN(c2oc(/C=C/c3ccccc3OC)nc2C#N)CC1` the Potency was inconclusive [inhibitor, single point].
With `O=C(COc1ccccc1)N1CCN=C1SCc1cccc(F)c1` the activity change, negative = growth inhibition was inconclusive: -35% [inhibitor].
With `CCOCCCNC(=O)C1CCN(Cc2cccc(OCc3ccccc3)c2)CC1` the Potency was inconclusive [inhibitor, partial curve].
With `Cc1n[nH]c(C)c1CCOc1ccc(C(C)C)cc1` the Potency was inconclusive [inhibitor, partial curve].
With `Cc1ccc(S(=O)(=O)N2CCN(Cc3nc4sc5c(c4c(=O)[nH]3)CCCC5)CC2)cc1` the Potency was inconclusive [inhibitor, single point].
For `COc1ccccc1NCc1nnc(-c2ccccc2)o1`, the “activity change, negative = growth inhibition” value was inactive: -14.5%.
For `C=CC(=O)NCCCc1cc(C(C)(C)C)c(O)c(C(C)(C)C)c1`, the Potency was inconclusive [inhibitor, single point].
With `CCOC(=O)c1c(-c2ccc(C)cc2)csc1NC(=O)c1nc(SCC)ncc1Cl` the “activity change, negative = growth inhibition” value was inactive: -15%.
For `O=C(CSc1nc2cc(Cl)ccc2s1)NC(=O)NCc1ccco1`, the Potency was inconclusive [inhibitor, single point].
With `O=C(CCC(=O)NNc1nc2ccccc2c2nc(-c3ccccc3)nn12)NCCCN1CCCC1=O` the Potency was inconclusive [inhibitor, single point].
With `CCc1ccc(NC(=O)CCc2ccc(C)o2)cc1` the “activity change, negative = growth inhibition” value was inactive: -2.98%.
In the case of `COc1ccc(N2CCN(CCCNC(=O)C(=O)c3c[nH]c4ccccc34)CC2)cc1`, the Potency is reported as inconclusive [inhibitor, single point].
For `Cn1nc(C(=O)OCC(=O)N2CCc3ccccc32)c2ccccc2c1=O`, the “activity change, negative = growth inhibition” value was inactive: -8.38%.
With `Cc1ccc(N(CC(O)CN2CCOCC2)S(=O)(=O)c2ccc3ccccc3c2)cc1` (stereo not drawn) the Potency was inconclusive [inhibitor, single point].
With `CC(=O)c1cc(CN2CCC(C(=O)Nc3cccc(-c4cscn4)c3)CC2)cs1` the Potency was inconclusive [inhibitor, single point].
In the case of `N#Cc1cn(CC(=O)NCCc2c[nH]c3ccccc23)c2ccccc12`, the Potency is reported as inconclusive [inhibitor, single point].
For `COc1cccc(C2c3[nH]c4ccccc4c3CCN2Cc2cnc(C)s2)c1OC` (stereo not drawn), the Potency was active: 14.6 µM.
In the case of `O=C(Nc1ccccc1C(=O)N1CCCC1)c1ncoc1-c1cccc(Cl)c1`, the Potency is reported as inconclusive [inhibitor, single point].
With `Cc1cc(C)cc(SCc2noc(C(=O)NCCCN3CCOCC3)c2C(=O)NCCCN2CCOCC2)c1` the Potency was inconclusive [inhibitor, partial curve, poor fit].
For `COc1ccc(C(=O)COc2ccccc2C#N)cc1`, the “activity change, negative = growth inhibition” value was inactive: -23.1%.
For `CCOC(=O)c1sc(NC(=O)CN2CCN(c3ccc(OC)cc3)CC2)nc1C`, the “activity change, negative = growth inhibition” value was inactive: -27.3%.
In the case of `CCc1ccc(CN(Cc2cn[nH]c2-c2ccc(OC)cc2)C(=O)Nc2ccc(C)c(F)c2)cc1`, the Potency is reported as active: 18.4 µM.
For `CC1CCN(CCCNC(=O)c2cc(Sc3ccc(F)cc3)nc3ccccc23)CC1`, the Potency was inconclusive [inhibitor, single point].
For `CCN(CC)CCNC(=O)c1ccc(NC(=O)c2ccc3c(c2)CCC3)cc1`, the “activity change, negative = growth inhibition” value was inactive: -16.5%.
In the case of `COc1ccccc1C(=O)C1CCCN(C(=O)c2ccc(Cl)cc2)C1` (stereo not drawn), the Potency is reported as active: 16.4 µM.
For `O=C(c1ccc([N+](=O)[O-])cc1)N1CCOC12CCN(c1ncc(C(F)(F)F)cc1Cl)CC2`, the Potency was inconclusive [inhibitor, single point].
With `CN(Cc1ccccc1)S(=O)(=O)c1ccc(Cl)c(C(=O)NCCCN2CCCC2=O)c1` the Potency was active: 16.4 µM.
For `O=C(NCC1CCCO1)C(c1ccc(F)cc1)N(CC1CCCO1)C(=O)c1ccc(-c2ccccc2)[nH]1` (stereo not drawn), the Potency was inconclusive [inhibitor, single point].
With `CCOc1ccc(S(=O)(=O)Nc2cccc(C(=O)N(C)CC(=O)Nc3cccc(OC)c3)c2)cc1` the “activity change, negative = growth inhibition” value was inactive: -21.5%.
For `Cc1cc(C)c(CN2CCN(C(=O)Cn3ccc(NC(=O)OCc4ccccc4)nc3=O)CC2)c(C)c1`, the Potency was inconclusive [inhibitor, partial curve, poor fit].
For `O=S(=O)(c1ccc(F)cc1)N1CCN(Cc2nnc(-c3ccccc3)o2)CC1`, the Potency was inconclusive [inhibitor, single point].
For `Cc1cc(Br)c(NC(=O)CN(C)CCOc2ccccc2)c(Br)c1`, the Potency was inconclusive [inhibitor, single point].
In the case of `C[n+]1ccnc2cc(Cl)ccc21`, the Potency is reported as active: 0.708 µM.
In the case of `O=C(Nc1ccccc1C(=O)NC(Cc1c[nH]c2ccccc12)C(=O)O)c1ccccc1` (stereo not drawn), the Potency is reported as inconclusive [inhibitor, full curve, poor fit].
With `Cc1ccccc1-c1cc(C(=O)O)n(CC2CC(c3cccnc3)=NO2)n1` (stereo not drawn) the “activity change, negative = growth inhibition” value was inactive: 20%.
With `Cc1ccc(S(=O)(=O)N2CCOCC2)cc1C(=O)OCC(=O)c1ccc(Br)cc1` the Potency was inconclusive [inhibitor, single point].
In the case of `CCc1c(C)sc(NC(=O)C2CC2c2ccccc2)c1C(N)=O` (stereo not drawn), the Potency is reported as inconclusive [inhibitor, single point].
For `CC(/C=N/NC(=O)c1nnn(-c2nonc2N)c1CN1CCCCC1)=C\c1ccccc1`, the Potency was inconclusive [inhibitor, partial curve].
For `Nc1cc(C(=O)OCC(=O)N2CCC(Cc3ccccc3)CC2)ccc1Cl`, the Potency was inconclusive [inhibitor, single point].
With `CSCCC1NC2(C(=O)Nc3c2ccc(Cl)c3C)[C@@H]2C(=O)N(C3CCCC3)C(=O)[C@H]12` (stereo partly drawn) the Potency was inconclusive [inhibitor, partial curve].
For `C=CCn1cc(C(=O)NCCCN(CC)CC)c(=O)c2cc(S(=O)(=O)N3CCC(C)CC3)ccc21`, the “activity change, negative = growth inhibition” value was inactive: -4.15%.
For `O=C(COC(=O)c1ccccc1NC(=O)c1ccco1)Nc1ccc2c(c1)OC(F)(F)O2`, the Potency was inconclusive [inhibitor, single point].
For `Cn1nc2c3cc(F)ccc3n(Cc3ccc(F)cc3)cc-2c1=O`, the Potency was inconclusive [inhibitor, full curve].
For `CSc1nnc(NC(=O)Cc2coc3cc(C)ccc23)s1`, the Potency was inconclusive [inhibitor, single point].
For `COc1ccc(Nc2nc(N)c(C(=O)c3ccc(F)cc3)s2)cc1`, the Potency was active: 0.58 µM.
In the case of `COc1cccc2c(=O)cc(C)n(CC(=O)Nc3cccc(C)c3)c12`, the Potency is reported as active: 18.4 µM.
With `O=C(NCc1ccc2c(c1)OCO2)c1ccc(=O)[nH]c1` the activity change, negative = growth inhibition was inconclusive: -4.66% [inhibitor].
For `CC1CN(C(C)C(=O)NC(c2ccccc2)c2ccccc2)CC(C)O1` (stereo not drawn), the “activity change, negative = growth inhibition” value was inactive: -1.52%.
In the case of `Cc1ccc(NC(=O)CNC(=O)c2ccc(C(C)(C)C)cc2)cc1S(=O)(=O)N1CCOCC1`, the Potency is reported as inconclusive [inhibitor, single point].
For `Cc1ccc(NC(=O)c2oc3ccccc3c2NC(=O)c2ccccc2C)cc1`, the Potency was inconclusive [inhibitor, single point].
In the case of `CCc1nccn1CCC(=O)N1CCCC(N2CCN(c3cccc(Cl)c3)CC2)C1` (stereo not drawn), the “activity change, negative = growth inhibition” value is reported as inactive: -8.86%.
With `Cc1c(C(=O)NCC(c2ccco2)N2CCCC2)oc2ccc(Cl)cc12` (stereo not drawn) the Potency was inconclusive [inhibitor, partial curve].
For `COc1ccc(Cn2c(=O)c3cccnc3n(Cc3cccc(OC)c3)c2=O)cc1`, the Potency was inconclusive [inhibitor, single point].
For `COC(=O)[C@@]1(Cc2ccccc2)[C@H]2C(=O)N(Cc3ccccc3)C(=O)[C@H]2[C@H]2CN=C(SCc3ccc(Cl)cc3)N21`, the Potency was inconclusive [inhibitor, single point].
